# Experimental data reported in the supplement of paper PMC3334620.
# The full ranking holds about 33,000 sequences; the median of “E-score (-0.5 to 0.5)” is about -0.012, and the highest 2% start at about 0.29. This is one part of the list.
# Biological target: T1, Ybr033w (UniProt P38073)
# T1 sequence: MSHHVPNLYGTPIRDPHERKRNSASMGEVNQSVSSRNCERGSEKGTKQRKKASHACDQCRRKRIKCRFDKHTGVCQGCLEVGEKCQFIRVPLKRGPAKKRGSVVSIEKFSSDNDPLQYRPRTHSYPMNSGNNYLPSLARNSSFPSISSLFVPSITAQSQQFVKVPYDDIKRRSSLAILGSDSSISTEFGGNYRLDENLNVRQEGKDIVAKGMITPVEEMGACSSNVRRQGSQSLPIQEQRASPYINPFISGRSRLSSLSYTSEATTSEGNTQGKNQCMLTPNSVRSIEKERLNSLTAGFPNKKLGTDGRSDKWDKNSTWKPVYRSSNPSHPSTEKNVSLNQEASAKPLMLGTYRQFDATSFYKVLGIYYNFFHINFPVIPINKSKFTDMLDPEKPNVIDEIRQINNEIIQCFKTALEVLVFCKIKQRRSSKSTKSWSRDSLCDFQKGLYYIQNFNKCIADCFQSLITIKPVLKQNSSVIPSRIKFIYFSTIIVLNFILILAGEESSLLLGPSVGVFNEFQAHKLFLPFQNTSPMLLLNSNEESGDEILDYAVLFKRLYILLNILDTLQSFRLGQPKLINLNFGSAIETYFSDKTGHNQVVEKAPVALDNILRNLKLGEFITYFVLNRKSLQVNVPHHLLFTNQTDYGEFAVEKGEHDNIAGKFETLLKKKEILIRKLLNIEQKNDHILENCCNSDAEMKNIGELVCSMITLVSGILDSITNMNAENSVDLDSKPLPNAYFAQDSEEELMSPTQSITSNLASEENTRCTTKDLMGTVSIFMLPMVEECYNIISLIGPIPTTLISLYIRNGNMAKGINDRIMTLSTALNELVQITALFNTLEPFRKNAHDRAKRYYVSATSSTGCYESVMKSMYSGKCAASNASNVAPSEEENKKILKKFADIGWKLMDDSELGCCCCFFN
# Test: PBM E-score (8-mer binding enrichment) (E-score (-0.5 to 0.5)); higher = stronger / more preferred TF binding; most listed sequences are background and not binding sites
# Details: protein concentration: 200 nM; construct: GST-full length
# Method in brief: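 GST-tagged yeast TFs (full-length or DNA-binding domain) were made by PURExpress in vitro transcription/translation and applied at about 100-200 nM to universal all-10-mer Agilent arrays. The arrays were made double-stranded by primer extension, on fresh or once-stripped slides. Bound protein was detected with fluorescent anti-GST, and scans were normalised with masliner. Each ungapped eight-base word, pooled with its reverse complement, received an E-score (modified Wilcoxon-Mann-Whitney statistic) from the Universal PBM Analysis Suite.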
row,Sequence,PBM E-score
1,CACATAAC,-0.012
2,CCGCAGCC,-0.206
3,AGTTGAAG,0.0872
4,GGTTACTA,-0.133
5,AACACATC,0.227
6,AGAGCGCT,-0.00506
7,ATCCGACG,0.0218
8,AGGACGAT,0.0296
9,GGACGGTA,0.0723
10,CGCGCATA,-0.0624
11,CACGCGAC,-0.178
12,AGGAACCG,0.0252
13,ATCGGAAT,0.26
14,GCCTGTCA,-0.195
15,ACATAAGG,0.142
16,CCTCTGGA,-0.0743
17,CTCCTTAA,0.0773
18,GGCTGGAC,-0.17
19,AGTCACTG,-0.263
20,ATTTAAAC,0.18
21,ATATGTCG,0.115
22,ACGAACTC,0.0499
23,CGTGTTCA,0.0511
24,GGTGGTGA,-0.03
25,AATATACA,0.316

row,Sequence,PBM E-score
1,TAACCTTA,-0.0618
2,ACGCTAAT,-0.063
3,ATCTCAAT,0.189
4,ACAGTGCT,0.114
5,CAGGACGG,-0.177
6,CGCTCGCC,-0.143
7,CTCCGCGA,-0.127
8,AGTCTCCA,-0.0529
9,GGTGTGTA,-0.18
10,CTGTATTC,0.0612
11,GCTCAAGA,-0.177
12,CCATTGCC,-0.0753
13,CCGAATCC,0.0777
14,CCGATGAG,-0.179
15,CGGCCAAG,-0.131
16,GGGTAGAC,-0.154
17,CTAGTCAA,0.00957
18,ACCATGAT,0.0215
19,TTGGCAAA,0.0817
20,TAATGGCA,0.121
21,CTCTTGCA,-0.143
22,ACCTTGAC,-0.0921
23,ACATCCTC,-0.0212
24,ATCTCACC,0.144
25,AAAGCGCC,-0.253

row,Sequence,PBM E-score
1,AGATAATA,0.219
2,AAATGAAT,0.0218
3,CGTTCCTA,-0.0409
4,AAACGTGG,-0.195
5,AGAGAAAT,0.0817
6,GAGGTGCA,0.0162
7,CGACTATA,0.0115
8,ACACACGA,0.0544
9,AGCCCTAA,-0.233
10,CTATCCAC,0.0657
11,ACTGGATC,0.131
12,CAGATCAG,-0.106
13,CGCCACTC,-0.183
14,ATACTGCA,0.201
15,CTCTTAAA,0.0832
16,AGATCCCC,-0.0356
17,CCTAATCA,0.116
18,AGGATAGA,0.0657
19,CTTATATC,0.146
20,AGCCCATG,-0.0321
21,AGTCTCGG,-0.172
22,ATGGCATA,0.141
23,ATGTCCCC,-0.154
24,AGTCCCCC,-0.359
25,AGAAGAAT,-0.0182

row,Sequence,PBM E-score
1,CACTCACC,0.0034
2,AAGGCTCT,-0.0483
3,ATTACTTC,0.0935
4,CCTTTGGA,-0.205
5,TAGCAGAA,0.0828
6,ATTTAGCA,0.275
7,AGGATGAG,-0.134
8,TTCGAAAA,0.153
9,AGGGAGAC,-0.272
10,CCTCTGGC,-0.124
11,ACGTGGAA,-0.0312
12,AAGTAGTA,0.125
13,ATACTCCC,-0.0125
14,CGCGAATC,0.00606
15,ACCAAGAA,0.103
16,GTGCTACA,-0.111
17,CTTGGCCC,-0.288
18,GGATCCCC,-0.322
19,CATCTGCA,-0.024
20,AGCTTGTG,-0.144
21,GTTGCCCA,0.0908
22,AACTCATC,-0.0094
23,GGGCTAAC,-0.168
24,CGGCGTGC,-0.303
25,AGAATCAA,0.091

row,Sequence,PBM E-score
1,GTAATCCA,0.0788
2,AACGGAAG,0.0503
3,CCGTTCAA,0.155
4,CACGCTAG,-0.188
5,ACTCCATG,-0.106
6,CCGAAACC,-0.12
7,AACACTGA,0.208
8,GCAGAGCC,-0.0675
9,CTATTGCC,-0.129
10,GAGTGGGC,-0.189
11,AATTCTGC,0.0888
12,AAGCGGCG,-0.112
13,TACATCAA,0.0979
14,CCGACTCG,-0.0146
15,AGATTTGG,-0.122
16,CACAACCA,0.0137
17,CGGACACG,-0.141
18,AAGTATCC,0.0423
19,AACTGTAG,0.161
20,CGGGGGTC,-0.296
21,AAATACAA,0.284
22,GCCTGTAC,0.0707
23,CACTTCGC,-0.0211
24,GGGAACCC,-0.202
25,CATGAAAA,0.165

row,Sequence,PBM E-score
1,CCGGCTCG,0.0646
2,CGACGAGA,-0.12
3,AATAGTAT,0.293
4,CAATGAAG,0.0396
5,CTATGTTC,0.145
6,ATGGGGCC,-0.322
7,AACAGAGA,0.172
8,CCATCAAC,0.136
9,AATAAGTC,0.197
10,AGACCACT,-0.0843
11,GCCAGCGA,-0.164
12,AACGGTTA,-0.0197
13,AACTTATT,0.21
14,ACACTAGC,-0.067
15,CCAATAAG,0.00582
16,GCTGTGCC,-0.00906
17,GAGCTACC,0.02
18,GAGAAGCC,-0.268
19,TGCCCGAA,0.0118
20,GAAGTCGC,0.00954
21,CCACGGAA,0.0292
22,GTATCCGA,-0.0198
23,ACGCCTTA,-0.209
24,CTTCATAA,0.148
25,AATACCGC,0.0223

row,Sequence,PBM E-score
1,CCACTAGG,-0.174
2,CATTGACC,0.0887
3,ACTTCCAT,0.00515
4,GGGTCCTA,-0.279
5,GGTCGCAC,-0.0828
6,ATTTTCCA,0.361
7,CGACAACA,-0.00263
8,AGGCTAAG,-0.128
9,CGATTACC,-0.101
10,TCAGAGAA,0.0787
11,CTTCGCTA,-0.214
12,AGACAAAT,0.129
13,CATATAAG,0.114
14,ACCGTATC,-0.0272
15,ACCTCACG,-0.0608
16,CTAATGCC,-0.0504
17,GGTATCGA,0.092
18,AACACAGG,-0.131
19,AGAGGATG,-0.0267
20,CGTGAACC,-0.0959
21,CTTCGGTA,-0.0419
22,AGTTCGAA,0.197
